Measured values reported in PubChem BioAssay AID743279 (National Center for Advancing Translational Sciences (NCATS), 2014).
Hit rate of the full screen: of about 360,000 compounds, about 17,000 (4.7%) were called active. The inconclusive results got no clear call from the source; some entries with a clear call stand among them for comparison. Cut-off read from the data, not from the text of the source: active = activity change below about -50%; inconclusive = mostly about -30% to -49%; inactive = weaker than that.

Assay: qHTS for Inhibitors of Inflammasome Signaling: IL-1-beta AlphaLISA Primary Screen
Conditions: THP-1 LPS/ATP IL-1B secretion, 16 h; at 57.5 µM, hits give low values
Method in brief: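 Secreted IL-1B measured by AlphaLISA bead assay after 16 h compound exposure of THP-1 cells; compounds (final up to 57.5 uM) added 1 h before LPS (250 ng/mL) and ATP (1.25 mM) stimulation; lower signal means less secretion.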
% is set by controls: 0 for no effect and ±100 for the full control effect.

Compound | activity change
COc1cccc(NC(=O)Nc2ccc(Cc3ccncc3)cc2)c1 | inconclusive: -32.3%
C=CCc1cc(Cl)ccc1OCCNCCOC | inconclusive: -38.3%
CCOc1ccccc1OCC(=O)Nc1nnc(C)s1 | active: -58.3%
COc1cc(/C=N/N2C(=O)c3ccccc3NC2(C)c2cccc([N+](=O)[O-])c2)cc(Br)c1O (centres undefined) | inconclusive: -35%
CCOC(CNCc1cc(C)c2[nH]c3ccccc3c2c1C)OCC | active: -95.6%
O=C(N/N=C/c1ccncc1)c1nc(-c2ccccc2)n2c1CCCCC2 | inconclusive: -32.9%
CC(=O)c1c(C)[nH]c(C(=O)COC(=O)c2cc(C)oc2C)c1C | inconclusive: -32.4%
Cc1ccc(NC(=O)Cn2ccc([N+](=O)[O-])n2)cc1Cl | inconclusive: -38.8%
Cn1c(-c2c(N)n(CCCc3ccccc3)c3nc4ccccc4nc23)nc2ccccc21 | inconclusive: -37.2%
O=C(CCN1C(=O)c2ccccc2S1(=O)=O)Nc1ccccc1O | inactive: 13.5%
C=CCNc1oc(COc2ccc(C)cc2)nc1C#N | inconclusive: -30.7%
O=C(Nc1cccnc1)Nc1cccc([N+](=O)[O-])c1 | inconclusive: -39.4%
O=C1CCCN1CCCNc1nc(NCc2cccs2)nc2ccsc12 | active: -84.3%
COc1ccc(N2CCN(C(=O)c3ccccc3F)CC2)c([N+](=O)[O-])c1 | inconclusive: -33.3%
O=C(Nc1cccc(C(F)(F)F)c1)OCc1ccncc1 | inconclusive: -39.7%
CCN(C(=O)Cn1nc(C)n2c(cc3cc(C)ccc32)c1=O)c1ccccc1 | active: -51.3%
COc1ccc(-c2c([C@H]3[C@H]4C=CC[C@@H](C)[C@@H]4C(=O)N3Cc3ccccc3)ccc3ccccc23)cc1 | inactive: -10.1%
Cc1cccc(CN2CCC(n3nccc3NC(=O)CCCc3ccccc3)CC2)c1 | inconclusive: -34.2%
CCOc1ccc(Cl)cc1CSc1ncn[nH]1 | inconclusive: -42.8%
CCOc1cc(CNCCc2ccc(S(N)(=O)=O)cc2)ccc1OCc1ccccc1 | active: -53.9%
CCC(C)NCCOCCOc1ccccc1-c1ccccc1 (centres undefined) | inconclusive: -30.7%
COC(C[C@@H]1O[C@H]1C(=O)[C@@H](C)OCc1ccccc1)OC | inconclusive: -36.8%
Oc1ccc(N=Nc2ccc3ccccc3c2)cc1 | inconclusive: -46%

Compound | activity change
CCN(c1ccccc1)S(=O)(=O)c1cccc(C(=O)Nc2cccc(C)n2)c1 | inactive: -4.24%
O=S(=O)(Nc1ccc(Cl)cn1)c1ccc2c(c1)OCCO2 | inactive: 12.6%
O=C1NC2c3c(I)sc(I)c3C(=O)C2O1 (centres undefined) | active: -56%
N#C/C(=C\C=C\c1ccccc1)C(=O)NCc1cccnc1 | active: -89.1%
OCCN1CCN(C2CCC(c3ccc(F)cc3)c3ccc(F)cc32)CC1 (centres undefined) | active: -75.7%
COc1ccc(OC)c(NS(=O)(=O)c2cccc3cccnc23)c1 | inactive: 17.6%
COc1cccc(-c2ncc3ccccc3c2COC(=O)N2CCCCC2)c1 | inactive: -0.731%
O=C(CSc1nc(=O)n2cc(Cl)ccc2n1)Nc1ccc2c(c1)OCO2 | inconclusive: -42.5%
O=[N+]([O-])c1cccc(-c2ccc(SCc3cccnc3)nn2)c1 | active: -79.6%
Cc1ccc(C)c(N2CCN(C(=O)CCCn3c(=O)c4cccn4c4cccnc43)CC2)c1 | inconclusive: -35.9%
O=C(CSc1nnc(-c2ccccc2F)n1C1CC1)N1CCCC1 | inactive: -5.15%
CC(Sc1nc(N)c2c3c(sc2n1)CSC(C)(C)C3)C(=O)Nc1ccccc1 (centres undefined) | inconclusive: -43.5%
Cc1cc(C)cc(N(CCC(=O)Nc2nnc(C)s2)S(=O)(=O)c2ccc(Cl)cc2)c1 | inactive: 30.3%
CCC(C)(C)n1nnnc1C(C(C)C)N(Cc1ccco1)Cc1cc2cc3c(cc2[nH]c1=O)OCO3 (centres undefined) | inconclusive: -49.9%
CN(C)/C=C/C(=O)c1ccc(-c2ccc(Cl)cc2Cl)o1 | inconclusive: -40.5%
CCOC(=O)c1sc(NC(=O)CCN2C(=O)C3CCCCC3C2=O)cc1C (centres undefined) | inconclusive: -36.1%
Cc1nc(N2CCOCC2)c2c(C)c(C(=O)Nc3ccccc3C(F)(F)F)sc2n1 | inconclusive: -43.4%
O=C(CCN1C(=O)/C(=C\c2ccccc2Cl)SC1=S)Nc1cccnc1 | active: -52.5%
O=C(c1cc2ncccn2n1)N1CCc2c([nH]c3ccccc23)C1c1ccccc1F (centres undefined) | inconclusive: -45.4%
COc1ccc(/C(N)=N/OC(=O)c2cccs2)cc1OC | inconclusive: -34.9%
Cc1cc(NC(=O)c2ccoc2C)ccc1Br | inconclusive: -49.6%
O=C(Cc1c(F)cccc1Cl)N/N=C/c1cccs1 | inconclusive: -35.2%
Cc1cc(C(=O)Cn2nnc(-c3ccc(Cl)cc3)n2)c(C)n1-c1ccccc1 | inconclusive: -38.3%

Compound | activity change
Cc1cc(C)c2c(N)c(C(=O)NN)sc2n1 | inconclusive: -30.5%
Cc1ccccc1NC(=O)c1nn(-c2ccc(F)c(F)c2)ccc1=O | inconclusive: -31.8%
COc1ccc(NC(=O)CCC(=O)N2CCOCC2)c([N+](=O)[O-])c1 | inactive: 0%
CCNS(=O)(=O)c1ccc(NC(=O)Nc2cccc(C(F)(F)F)c2)cc1 | inconclusive: -47.2%
S=C(NCc1ccco1)NCC(c1ccco1)N1CCCCC1 (centres undefined) | inconclusive: -31.1%
COc1ccc(C(=O)Nc2ccc(Cl)cc2C(=O)NCCN2CCOCC2)cc1 | active: -55.6%
S=c1[nH]cc(-c2ccc(Cl)cc2)n1Cc1ccccc1 | inconclusive: -41.6%
Nn1c(COc2ccccc2F)nnc1SCC(=O)NC1CCS(=O)(=O)C1 (centres undefined) | inactive: 7.45%
CCOc1ccc2nc(N(CCN(C)C)C(=O)c3ccc4c(c3)CCCC4)sc2c1 | active: -64.7%
COc1ccccc1CO/N=C/NC(=O)c1c(OC)ccnc1Oc1ccc(F)cc1 | inconclusive: -33.9%
O=c1ccc(/C=C/c2ccccc2)nn1Cc1ccccc1Cl | inconclusive: -44.8%
Cn1c(=N)n(CC(O)c2cccc3ccccc23)c2ccccc21 (centres undefined) | inconclusive: -46.1%
Cc1csc(N2CCN(c3cc4c(cc3Cl)nc(-c3ccncc3)n4CCCN3CCCC3)CC2)n1 | inconclusive: -42.9%
Cc1ccc(NC(=O)CNC(=O)c2ccc(OC(F)F)cc2)cc1S(=O)(=O)N1CCCCCC1 | inconclusive: -32.9%
S=C(NCc1cccc(Cl)c1)NCc1ccco1 | inconclusive: -30.8%
CS(=O)(=O)NC1c2cccc3cccc(c23)C1Sc1nncn1/N=C/c1ccco1 (centres undefined) | active: -60.1%
CCOc1ccc(OCc2ccc(C(=O)NCc3ccncc3)o2)cc1 | inconclusive: -39.7%
COc1cc(NC(=O)c2cc(C(C)C)on2)c(OC)cc1Cl | inactive: 13.4%
COc1ccc(Cl)cc1NC(=O)C1(c2cccs2)CCOCC1 | inconclusive: -42.2%
C=C1[C@H]2O[C@H]2[C@@H](OC(C)=O)[C@@]2(C)[C@@H](OC(C)=O)C[C@@H](OC(C)=O)[C@@](C)(O)[C@@H]2[C@@H](OC(C)=O)[C@@]2(O)[C@@H](C)C(=O)O[C@H]2[C@H]1Cl | inactive: 3.15%
O=C(OCC(=O)N(CCc1ccccc1)Cc1ccccc1)c1ccccc1O | inactive: 5.41%
CSc1ccc(/C=c2\s/c(=C\C(=O)C(C)(C)C)n(CC(=O)NCCC3=CCCCC3)c2=O)cc1 | inconclusive: -41.9%
CCC1CCCCN1CCCNC(=O)c1cc2c(=O)oc3ccc(C)cc3c2s1 (centres undefined) | inconclusive: -33.8%

Compound | activity change
CC(C)CC1C(=O)N(Cc2cn(Cc3ccco3)nn2)CCS(=O)(=O)N1Cc1ccc(-c2ccc(F)nc2)cc1 (centres undefined) | inconclusive: -38.4%
CCS(=O)(=O)c1ccc2oc(Nc3ccc(C(C)(C)C)cc3)nc2c1 | inactive: 14.8%
c1ccc(-c2cn(-c3ccccc3)c3[n+]2CCS3)cc1 | inactive: -12.4%
NC(=O)c1c(NC(NC(=O)c2ccco2)C(=O)c2ccc(Cl)cc2)sc2c1CCCC2 (centres undefined) | inconclusive: -31.2%
COc1cc(C(=O)Nc2ccc(S(=O)(=O)NC(C)C)cc2)cc(OC)c1OC | inconclusive: -37.6%
CCN1CCN(C(=O)/C=C/c2ccc(C)o2)CC1 | inactive: 21.2%
O=C(Nc1cccc2ccccc12)c1csc(COCCO)n1 | inactive: -2.58%
O/N=C/c1cc(Br)ccc1OCc1ccccc1F | active: -62.7%
CCN(CC)C(=O)C1CCN(S(=O)(=O)c2ccc3oc4ccccc4c3c2)CC1 | inconclusive: -49.5%
O=C(Nc1cccc(C(=O)NC2CCCC2)c1)c1ccccc1 | inconclusive: -40.1%
CN1CCc2nc3sc(C(=O)C45CC6CC(CC(C6)C4)C5)c(N)c3cc2C1 | inactive: -16.2%
COC(=O)c1cccc(Nc2cc(C)nc(-c3ccccc3O)n2)c1 | inactive: -2.96%
O=C(NCc1ccccn1)Nc1cc(Cl)ccc1Cl | inconclusive: -41.3%
CN(C)CCCN1c2ccccc2CCc2ccc(Cl)cc21 | inconclusive: -47.9%
Cn1c2c(c3ccccc31)CC/C2=N\O | inconclusive: -33.6%
NC(=O)C1CCN(c2cc(Cl)nc(N)n2)CC1 | inconclusive: -33.1%
COc1ccc2nc(NN=C(C)c3ccccn3)cc(C)c2c1 | active: -102%
COc1ccc(-n2c(Cn3c(=O)sc4ccccc43)nnc2SCC(=O)N2CCCCC2)cc1 | inconclusive: -35.2%
NC(=O)c1nnsc1Sc1c(C(N)=O)nnn1-c1cccc(N)c1 | inconclusive: -36.9%
O=C(Nc1ccc(N2CCOCC2)cc1N1CCOCC1)c1ncoc1-c1cccc(F)c1 | inconclusive: -48.9%
